Measured values: PubChem BioAssay AID493208 (National Center for Advancing Translational Sciences (NCATS), 2011)
About 340 (0.77%) of roughly 44,000 compounds were called active. This list was built around the results that the source calls inconclusive (neither active nor inactive); the mix of calls is not that of the screen. Calls come from the whole dose curve; as a rule, active = well fitted inhibition curve with a large enough effect; inconclusive = small, poorly fitted or top-dose-only effect; inactive = flat fitted curve, though single readings scatter. No potency is given beside an inconclusive call; the fits are too rough.

Test: Acumen qHTS Assay for Inhibitors of the mTORC1 Signaling Pathway in MEF (Tsc2-/-, p53-/-) Cells: Sytravon; note: nearly all actives have a fitted effect of over 50% in size;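 for activity change, negative = inhibition: plate controls were DMSO for no effect and rapamycin for full effect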
Settings: phospho-rpS6 immunofluorescence/PI, 24 h; series mostly up to 38.3 µM; activity change, negative = inhibition: at the top concentration
Procedure, shortened: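 Tsc2-/-, p53-/- mouse embryonic fibroblasts (empty-vector line) exposed to compound 24 hrs at 37 C, fixed, immunostained for phospho-rpS6 and counterstained with propidium iodide. Acumen laser scanning gives % positive cells from Alexa 488/PI ratio, thresholded using 7.5 nM rapamycin; PI count gives viability.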
Potency is the fitted concentration of half-maximal effect; tags give direction and shape of the fitted curve.

SMILES	Potency	activity change, negative = inhibition
COc1ccc(N2CCN(C(=O)C(C)n3nc(C)c4sc5ccccc5c4c3=O)CC2)cc1 (stereo unspecified)	active: 1.31 µM	
CCCCNC(=O)c1ccc2c(c1)N=C(CC)c1ccccc1S2	inconclusive [falling, full curve]	
O=C(Nc1ccccc1)Nc1nnc(SCC(=O)N2CCCCC2)s1		inactive: -7.08%
CC1=C(c2ccc(C)c(C)c2)S(=O)(=O)N(Cc2ccc(C(=O)Nc3cc(F)ccc3F)cc2)C1=O	inconclusive [falling, partial curve, poor fit]	
O=C(CSc1oc(-c2ccc(F)cc2)nc1S(=O)(=O)c1ccccc1)NC1CCCCC1	inconclusive [falling, single point]	
CCCCOc1ccccc1C1CC(=O)Nc2cc(C)c(C)cc21 (stereo unspecified)	inconclusive [falling, full curve, poor fit]	
CCCC(=O)N1c2ccccc2-c2nnc(SC)nc2OC1c1sccc1C (stereo unspecified)	inconclusive [falling, single point]	
CC1=C(c2ccc(C)c(C)c2)S(=O)(=O)N=C1N1CCC(C(=O)NCc2ccc(N(C)C)cc2)CC1		inactive: 0.958%
Cc1ccc(NC(=O)c2nc(S(=O)(=O)Cc3ccc(F)cc3)ncc2Cl)cc1C	inconclusive [falling, full curve, poor fit]	
CC(=O)c1cccc(NC(=O)CCn2nc(C)c(S(=O)(=O)N3CCCCC3)c2C)c1	inconclusive [falling, single point]	
CCOc1ccc(C(=O)N2CCc3cc(OC)c(OC)cc3C2COc2ccc3c(C)cc(=O)oc3c2)cc1OCC (stereo unspecified)		inactive: -1.82%
COc1ccc(Cl)cc1NC(=O)Cn1c(=O)n(-c2ccc(C)cc2)c(=O)c2ccc(C(=O)NCc3ccccc3Cl)cc21		inactive: 0.649%
COCCCNC(=O)Cn1c(=O)n(-c2ccc(C)c(C)c2)c(=O)c2c3c(sc21)CCCCC3	inconclusive [activator, partial curve, poor fit]	
CCOc1ccc(CNC(=O)C2CCN(c3nnc(-n4c(C)ccc4C)s3)CC2)cc1		inactive: -10.5%
Cc1ccc(-c2onc(C)c2C)cc1S(=O)(=O)NCc1ccc(N(C)C)cc1		inactive: -9.34%
O=C(NCc1ccccc1)C(=O)NCC(c1ccco1)S(=O)(=O)c1ccc(Cl)cc1 (stereo unspecified)	inconclusive [falling, partial curve, poor fit]	
Cc1ccccc1Nc1nn2c(=O)c3ccc(C(=O)NCc4ccccc4)cc3nc2s1		inactive: 3.73%
COc1ccc(CCNC(=O)c2cc3n(n2)CCCN(Cc2ccc(C)cc2)C3=O)cc1OC	inconclusive [falling, partial curve, poor fit]	
COC(=O)CN1C(=O)C(C)(C)c2cc(S(=O)(=O)Nc3ccc(Br)cc3F)ccc21	active: 13.1 µM	
COc1ccc(OC)c(C(=O)CC2(O)C(=O)N(Cc3ccccc3C)c3ccccc32)c1 (stereo unspecified)	inconclusive [falling, partial curve]	
CC(C)(C)C1CCc2c(sc(NC(=O)Cn3nnc(-c4ccccc4Cl)n3)c2C#N)C1 (stereo unspecified)		inactive: -8.61%

SMILES	Potency	activity change, negative = inhibition
COc1ccc(-c2nc(SCC(=O)Nc3ccc4c(c3)OCCO4)c(-c3ccc(F)cc3)[nH]2)cc1	inconclusive [falling, partial curve, poor fit]	
CCOC(=O)c1c(NC(=O)c2cc(-c3ccc(Br)cc3)on2)sc(C(C)=O)c1C	inconclusive [falling, full curve, poor fit]	
Cc1cccc(CS(=O)(=O)c2ncc(Cl)c(C(=O)Nc3nnc(C(C)C)s3)n2)c1	active: 16.5 µM	
COCc1nnc(NC(=O)c2cc(OC)c(OC)c(OC)c2)s1	inconclusive [falling, single point]	
C=CCc1cccc2cc(-c3nc4ccc(C)cc4[nH]3)c(=O)oc12	inconclusive [falling, single point]	
Cc1ccccc1Nc1c(-c2c(F)cccc2Cl)nc2ccc(Br)cn12	inconclusive [falling, single point]	
CCN1CCOC(=O)C1CC(=O)Nc1ccc(Br)cc1 (stereo unspecified)	inconclusive [falling, single point]	
O=C(Nc1cccc(-c2nc3ccccc3o2)c1)C(F)(F)F		inactive: -1.14%
Cc1ccn2c(Nc3ccc(C(C)C)cc3)c(-c3cccnc3)nc2c1		inactive: -2.39%
CCOc1ccc(-n2c(SCC(N)=O)nc3c(oc4ccccc43)c2=O)cc1		inactive: 0.985%
COc1ccc(C(=O)Nc2ccc3c(c2)CCCN3S(=O)(=O)c2ccc(C)cc2)c(OC)c1	inconclusive [activator, single point]	
CCOc1ccc(N2C(=O)c3[nH]nc(-c4ccc(OC)cc4)c3C2c2cccs2)cc1 (stereo unspecified)	inconclusive [falling, single point]	
COc1cc(Nc2nc(SCc3ccccc3Cl)nc3ccccc23)cc(OC)c1	inconclusive [falling, partial curve, poor fit]	
CCOCc1cc(CN2CCN(c3ccccc3OC)CC2)c(O)c2ncccc12	inconclusive [falling, full curve, poor fit]	
CCOC(=O)N1CCN(Cc2nc3cc(NC(=O)c4cccc(C)c4)ccc3n2C(C)C)CC1	inconclusive [falling, full curve, poor fit]	
Cc1ccc(S(=O)(=O)c2nnn3c2nc(NCc2cccs2)c2sccc23)cc1	inconclusive [falling, partial curve]	
Cc1ccccc1C(=O)Nc1cccc(OCc2cc(=O)n3cccc(C)c3n2)c1	inconclusive [falling, partial curve, poor fit]	
CCc1ccc(CNC(=O)Cn2nc(-c3ccc(C)cc3)ccc2=O)cc1	inconclusive [falling, single point]	
CCOC(=O)c1nc(Nc2ccc(C(=O)OC(C)C)cc2)c2ccccc2n1	inconclusive [falling, partial curve]	
COc1ccccc1NC(=O)c1oc2ccccc2c1NC(=O)Cc1ccccc1	inconclusive [falling, full curve, poor fit]	
